# In a collection of fitness landscapes (doi:10.1016/j.celrep.2020.107928):
# Whole data set: some 81,000 sequences, median “one-hybrid fitness for binding NBS DNA” near -0.1, cut for the highest 2% near 0.36. This is one part of the list.
# B1: Caulobacter ParB omega fusion; a variant is named by its letters at X, in order, B8GW30 (parent)
# chain: MESVVVGEPGMSEGRRGLGRGLSALLGEVDAAPAQAPGEQLGGSREAPIEILQRNPDQPRRTFREEDLEDLSNSIREKGVLQPILVRPSPDTAGEYQIVAGERAWRAAQRAGLKTVPIMVRELDDLAVLEIGIIENVQRADLNVLEEALSYKVLMEKFERTQENIAQTIGKSXSHVANXMRLLXLPDEVQSYLVSGELTAXHARAIAAAADPVALAKQIIEGGLSVRETEALARKAPNLSAGKSKGGRPPRVKDTDTQALESDLSSVLGLDVSIDHRGSTGTLTITYATLEQLDDLCNRLTRGI
# Variants of: B1
# Test: one-hybrid fitness for binding NBS DNA (the Noc-binding site; scaled: cognate 1, non-cognate 0); higher = stronger binding
# Conditions: with NBS DNA site
# Outline: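 Bacterial one-hybrid selection in E. coli USO rpoZ- hisB- pyrF- with a HIS3 reporter carrying the site 19 bp from the promoter, screening Caulobacter ParB libraries with four specificity codons randomised (NNS). Cells grew 48 hours at 37°C on M9-minus-histidine plus 0.1 mM IPTG and 5 mM 3-AT. Plasmids before and after selection were Illumina-sequenced, three replicate libraries pooled, and variants under 10 reads dropped. Fitness is the log change in variant-to-wild-type read ratio, rescaled to cognate 1, non-cognate 0.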
row,Variant,one-hybrid fitness for binding NBS DNA
1,LIFY,≤ 0.2
2,LYQD,≤ 0.2
3,KIKR,0.239
4,IYSG,≤ 0.2
5,TPWG,≤ 0.2
6,PSNS,≤ 0.2
7,QVKW,≤ 0.2
8,EQIM,≤ 0.2
9,AAFW,≤ 0.2
10,CFMR,≤ 0.2
11,MLCI,≤ 0.2
12,LDMS,≤ 0.2
13,TKMT,≤ 0.2
14,HGTF,≤ 0.2
15,DPVV,≤ 0.2
16,SGKH,≤ 0.2
17,SPKA,≤ 0.2
18,KFPA,≤ 0.2
19,PPAM,≤ 0.2
20,PIMT,≤ 0.2
21,KMES,≤ 0.2
22,AAPN,≤ 0.2
23,TTKR,0.372
24,HPVT,≤ 0.2
25,CMRM,≤ 0.2

row,Variant,one-hybrid fitness for binding NBS DNA
1,PHVG,≤ 0.2
2,PVST,≤ 0.2
3,DRYD,≤ 0.2
4,GEEG,≤ 0.2
5,RWFM,≤ 0.2
6,QCSQ,0.271
7,TTAS,≤ 0.2
8,LLTP,≤ 0.2
9,GYGC,≤ 0.2
10,YLTH,≤ 0.2
11,YRAE,≤ 0.2
12,CMMR,≤ 0.2
13,RIHG,≤ 0.2
14,HNDT,≤ 0.2
15,NSWA,≤ 0.2
16,NPPM,≤ 0.2
17,EDGS,≤ 0.2
18,DTKW,≤ 0.2
19,DGPR,≤ 0.2
20,MISW,≤ 0.2
21,QADS,≤ 0.2
22,QYRM,0.394
23,SCNT,≤ 0.2
24,RVVW,≤ 0.2
25,PVSE,≤ 0.2

row,Variant,one-hybrid fitness for binding NBS DNA
1,NTLD,≤ 0.2
2,WCHS,≤ 0.2
3,LATY,≤ 0.2
4,PWDL,≤ 0.2
5,RSIH,≤ 0.2
6,AHSG,≤ 0.2
7,QWQT,≤ 0.2
8,AKQA,≤ 0.2
9,SAVI,≤ 0.2
10,RFTN,≤ 0.2
11,ASEY,≤ 0.2
12,ACKN,≤ 0.2
13,AHNG,≤ 0.2
14,VPAI,≤ 0.2
15,QNCR,≤ 0.2
16,RFVM,≤ 0.2
17,TVVA,≤ 0.2
18,IHSR,≤ 0.2
19,ACCF,≤ 0.2
20,VWNG,≤ 0.2
21,LIRN,≤ 0.2
22,HLKG,≤ 0.2
23,GWTD,≤ 0.2
24,PSAN,≤ 0.2
25,MVPR,≤ 0.2

row,Variant,one-hybrid fitness for binding NBS DNA
1,FPNM,≤ 0.2
2,QVID,≤ 0.2
3,PAPE,≤ 0.2
4,DGYW,≤ 0.2
5,TTPG,≤ 0.2
6,RPHR,≤ 0.2
7,RYDF,≤ 0.2
8,CGAV,≤ 0.2
9,GCTR,≤ 0.2
10,PQAW,≤ 0.2
11,CSKT,≤ 0.2
12,NQNS,≤ 0.2
13,DVDW,≤ 0.2
14,RDLQ,≤ 0.2
15,HAYA,≤ 0.2
16,LDST,≤ 0.2
17,RSWI,≤ 0.2
18,LPWM,≤ 0.2
19,GRPK,≤ 0.2
20,RHIW,≤ 0.2
21,CNRG,≤ 0.2
22,ARAI,≤ 0.2
23,PSVN,≤ 0.2
24,PQAR,≤ 0.2
25,RQQC,≤ 0.2

row,Variant,one-hybrid fitness for binding NBS DNA
1,RGKS,0.348
2,DSPG,≤ 0.2
3,LWRS,≤ 0.2
4,LAWM,≤ 0.2
5,KLCD,≤ 0.2
6,QLWC,≤ 0.2
7,PRRG,≤ 0.2
8,SQTL,≤ 0.2
9,TFHR,≤ 0.2
10,CVLC,≤ 0.2
11,QLGL,≤ 0.2
12,MCCG,≤ 0.2
13,RRYD,≤ 0.2
14,VRKM,≤ 0.2
15,QHPL,≤ 0.2
16,GWDT,≤ 0.2
17,TQPF,≤ 0.2
18,IPSR,≤ 0.2
19,WLEC,≤ 0.2
20,RWKP,≤ 0.2
21,RAIM,≤ 0.2
22,ALRI,≤ 0.2
23,NARE,≤ 0.2
24,IISR,≤ 0.2
25,ESKM,≤ 0.2

row,Variant,one-hybrid fitness for binding NBS DNA
1,LPGA,≤ 0.2
2,GIDG,≤ 0.2
3,LKAR,≤ 0.2
4,MHER,≤ 0.2
5,HISF,≤ 0.2
6,VKTW,≤ 0.2
7,QIRK,0.212
8,PTNQ,≤ 0.2
9,KKTC,≤ 0.2
10,LNMT,≤ 0.2
11,ECIE,≤ 0.2
12,KVPY,≤ 0.2
13,LISG,≤ 0.2
14,LQQM,≤ 0.2
15,FPGY,≤ 0.2
16,PRTC,≤ 0.2
17,RLVQ,≤ 0.2
18,DQLN,≤ 0.2
19,KLHC,≤ 0.2
20,SSYK,≤ 0.2
21,CTVI,≤ 0.2
22,VQES,≤ 0.2
23,FHHR,≤ 0.2
24,PQYY,≤ 0.2
25,ATRA,≤ 0.2

row,Variant,one-hybrid fitness for binding NBS DNA
1,KPAC,≤ 0.2
2,NNIE,≤ 0.2
3,SQTN,≤ 0.2
4,RAPG,≤ 0.2
5,ILYR,≤ 0.2
6,KQSY,≤ 0.2
7,ARAW,≤ 0.2
8,DHWV,≤ 0.2
9,VLGI,≤ 0.2
10,KVYS,≤ 0.2
11,MSCR,≤ 0.2
12,TCKK,≤ 0.2
13,FQQR,≤ 0.2
14,QFTT,≤ 0.2
15,WCAS,≤ 0.2
16,QLLT,0.33
17,LHNA,≤ 0.2
18,LIME,≤ 0.2
19,ARCT,≤ 0.2
20,HNKT,≤ 0.2
21,HLVC,≤ 0.2
22,NWQG,≤ 0.2
23,RLCD,≤ 0.2
24,WKKS,≤ 0.2
25,DKKD,≤ 0.2

row,Variant,one-hybrid fitness for binding NBS DNA
1,NMGM,≤ 0.2
2,NAAN,≤ 0.2
3,ATKH,≤ 0.2
4,SSQV,≤ 0.2
5,QYEW,≤ 0.2
6,PRVY,≤ 0.2
7,QINP,≤ 0.2
8,FSIR,≤ 0.2
9,SATD,≤ 0.2
10,MNNT,≤ 0.2
11,GAAL,≤ 0.2
12,RFLK,≤ 0.2
13,TNIR,≤ 0.2
14,YRWG,≤ 0.2
15,LKWS,≤ 0.2
16,RVRV,≤ 0.2
17,TRQE,≤ 0.2
18,QAQY,≤ 0.2
19,VFAY,≤ 0.2
20,QQEL,≤ 0.2
